From ChEMBL document CHEMBL4888484, “Replenishing the malaria drug discovery pipeline: Screening and hit evaluation of the MMV Hit Generation Library 1 (HGL1) against asexual blood stage Plasmodium falciparum ,using a nano luciferase reporter read-out” (2022)
Screen size: about 150,000 compounds; about 540 (0.36%) showed an effect of 50% or more. This is one part of the list.

Tested on: Plasmodium falciparum
Assay: Primary screen in NF54 nanoGlo assay, in single point, at 2uM, 72h; a lower Z score goes with more inhibition
Type: functional, Erythrocyte
Conditions: timepoint 72 hour

Structure (SMILES) | % Inhibition [%] | Z score
COC(=O)c1cc(NC(=O)CN(C)S(=O)(=O)c2ccc3c(c2)OCCCO3)c(F)cc1F | -4 | 0.51
CNc1snc(C)c1C(=O)N1CCC(Cc2ccccc2)CC1 | -7 | 0.66
Cc1ncc(C(=O)N2C[C@H]3CN(C(=O)c4ccccc4)C[C@@]3(c3nc(C)no3)C2)cn1 | -16 | 2.12
N[C@H]1CCN(c2nc(-c3ccccc3)cc(-c3ccco3)n2)C1 | 0 | -0.05
C[C@]1(C(=O)O)CCN(C(=O)c2ccc(Oc3ccccc3)o2)C1 | -8 | 1.11
COc1ccc(S(=O)(=O)N2CC(=O)N(CC3CC3)C3(CCCCC3)C2)cc1 | 1 | -0.09
Cc1[nH]c2c(F)cc(F)cc2c1CCN[C@H]1CCOC2(CCOCC2)C1 | 1 | -0.09
O=C(Nc1ccc2c(c1)cc(C(=O)Nc1ccccc1)n2Cc1ccccc1F)c1cccc(F)c1 | 7 | -0.8
O=C(c1ccc(NS(=O)(=O)N2CCOCC2)cc1)C1CCC1 | 8 | -1.01
O=C(c1nn(-c2ccccc2F)cc1O)N1CCC(OC[C@H]2CCCO2)CC1 | -8 | 1.11
CC(C)n1nc(-c2ccco2)nc1[C@@H]1[C@H]2[C@@H]3CC[C@@H](C3)[C@@H]12 | -1 | 0.23
CC(=O)c1cccc(-n2cc(C3(S(N)(=O)=O)CCC3)nn2)c1 | 0 | -0.03
COCCC(C)NC1CC2(CCOCC2)Oc2ccccc21 (stereo not drawn) | -1 | 0.17
COc1ccc(OCC2CCN(Cc3c[nH]c(C)n3)CC2)cc1 | -13 | 2.28
COc1ccc(-c2ccc(N3CCN(C(=O)CN(CC4CC4)C(=O)NC(C)(C)C)CC3)nn2)c(OC)c1 | 3 | -0.38
CCn1c(NS(C)(=O)=O)nc2cc(Cl)ccc21 | 9 | -1.06
CCN1CCN(CCCN2CC3(CCN(Cc4cccc(C)c4)CC3)OC2=O)CC1 | -17 | 2.95
CC1(C)CN(C(=O)CCc2c[nH]nn2)[C@H]2CCC[C@H]21 | 8 | -1.2
Cc1ccc(NS(=O)(=O)c2ccc(NC(=O)C3CCC3)cc2)cc1C | -13 | 1.14
O=C(CC1C=CCC1)Nc1cc(C2CC2)nn1C1CCS(=O)(=O)C1 (stereo not drawn) | -5 | 0.7
CCc1nccn1CC(=O)N1CCN(c2ccc(C(=O)OC)cc2)CC1 | 11 | -1.58

Structure (SMILES) | % Inhibition [%] | Z score
COc1ccc(CNC(=O)c2ccc(-c3nc4cccnc4n(C)c3=O)cc2)cc1OC | -5 | 0.8
Cc1nc2cc(C[C@H]3CCCS(=O)(=O)C3)ccc2o1 | -9 | 1.14
O=C1NC2(CCCC2)C(=O)N1C[C@H](O)COc1ccc(-c2ccccc2)cc1 | -4 | 0.61
CC(C)(C)OC(=O)C[C@@H]1CCN(C(=O)Nc2ccccc2)C[C@@H]1CCN1CCC(C(N)=O)CC1 | -10 | 1.29
CCCc1nnc(NCc2cccn2C)o1 | -2 | 0.28
CCCn1cc(NC(=O)N(C)[C@H]2CCN(C)C2)nn1 | -4 | 0.54
O=C(NC1CCCC1CCO)N[C@H]1CCOc2c(F)cccc21 (stereo partly drawn) | -29 | 3.41
NC(=O)CN(CC(=O)NCCc1ccc(F)cc1)C1CCCC1 | 0 | -0.01
O=C(NC1CC2CCC1O2)N1CCC(Oc2ccc(F)cc2F)CC1 (stereo not drawn) | -8 | 1.36
Cn1ncnc1COc1ccccc1C(=O)NCc1ccccc1 | -5 | 0.95
Cc1ccnn1CCCNC(=O)CCn1nc(C(F)(F)F)c(Cl)c1C | 6 | -0.95
CCCN1C(=O)COc2ccc(-c3csc(NC(=O)COc4ccc(Cl)cc4Cl)n3)cc21 | 1 | -0.12
CC(C)(CNc1ccc(Br)cc1C#N)C(N)=O | -8 | 0.91
Cn1ncnc1NC(=O)N1CCC[C@H]1C1CCOCC1 | 1 | -0.2
O=C1C[C@H](c2ccc3c(c2)OCO3)c2scc(-c3cccc(F)c3)c2N1 | -7 | 0.95
COc1cc([C@H]2CC(=O)Nc3c(C(=O)O)cn(-c4ccccc4F)c32)ccc1O | -38 | 4.44
CN1C(=O)CC[C@H](NC(=O)NCC2=CCCCC2)C1=O | 7 | -0.94
CCn1nccc1C(=O)N1CC[C@H](Oc2cccc(F)c2)C1 | -4 | 0.49
COCc1cc(Cl)ccc1NC(=O)N1C2CCC1CC1(C2)CC1(F)F (stereo not drawn) | 2 | -0.36
Cc1ccc(CNC(=O)N2CCC[C@H]2c2ccc(C)s2)nc1 | -8 | 0.92
CN1CC[C@H](NS(=O)(=O)c2cc(Cl)ccc2OCCC2CC2)CC1=O | -2 | 0.28

Structure (SMILES) | % Inhibition [%] | Z score
Cc1c[nH]c(CN2CCC[C@H](c3nnc4ccccn34)C2)c(C)c1=O | -3 | 0.66
Cc1c(CNc2ncc(F)cn2)cnn1C | -12 | 1.44
CCCN(CCC)S(=O)(=O)c1c(C)n[nH]c1C | -7 | 0.68
COc1ccc(-c2cc(C(F)F)c3c(C4CC4)nn(CC(=O)O)c3n2)cc1 | -28 | 3.24
CCN1CCC(Nc2ncnc3sc(C)c(C)c23)CC1 | 16 | -1.84
CCc1nnc2n1CCN(C(=O)c1nc(OC(C)C)ccc1Cl)C2 | 0 | 0.09
O=C(c1ccc(F)c(F)c1F)N1CCC(n2cnc3ncccc3c2=O)CC1 | -8 | 1.07
COCCOc1ncccc1NC(=O)N1CCC([C@@H]2CCCCO2)CC1 | -9 | 1.64
Cc1cnc(C2CCOCC2)n1CC1CN(C(=O)c2cnccn2)C1 | -7 | 0.97
c1coc(CC[C@@H]2NCCn3cccc32)c1 | 34 | -3.9
O=C(O)CCc1cc2n(n1)CCN(Cc1ccc([C@@H]3CCCO3)s1)C2 | -20 | 2.62
Cn1cc(C(=O)N2CCCC[C@@H]2CN2CCCC2)c(=O)c2ccccc21 | -10 | 1.4
O=C(Nc1ccc2[nH]ncc2c1)c1c[nH]nc1C1CC1 | -11 | 2.03
CN(Cc1ccco1)C(=O)c1cccc(C(=O)N(C)Cc2ccco2)n1 | -15 | 1.99
CS(=O)(=O)NCCN(Cc1nc(-c2c(F)cccc2F)cs1)C1CC1 | -6 | 0.75
N#CCN(CC1CCC1)c1ccccc1 | -7 | 0.7
O=C(c1ccccc1)N1CCN(C(=O)N2CCOCC2)C1 | -1 | 0.12
CN(C)CCc1nc(-c2ccc(-c3ccccc3)cc2)no1 | 9 | -1.76
CC(=O)C1C(c2ccc(C(C)C)cc2)c2c(noc2C)CC1(C)O (stereo not drawn) | 33 | -3.76
COc1cccc(CN[C@H](c2ccccc2)c2n[nH]c(C)n2)c1OC | -3 | 0.46
C[C@@H](CCc1ccc(Br)cc1)NC(=O)Cn1cnnn1 | -2 | 0.29

Structure (SMILES) | % Inhibition [%] | Z score
COC(=O)[C@H]1CN(c2nccc(C(F)(F)F)n2)C[C@@H](C)O1 | -9 | 0.96
CCNC(=O)[C@H]1CCN(C(=O)c2ccc(-c3cnc(N)nc3)cc2)C1 | -11 | 1.78
O=C(Nc1cc(S(=O)(=O)N2CCCC2)ccc1Cl)c1cc(-c2ccc(-c3ccccc3)cc2)nc2ccccc12 | -9 | 1.69
CS(=O)(=O)N(c1cccnc1-n1nc(C(F)(F)F)cc1C(F)(F)F)S(C)(=O)=O | 0 | 0.05
O=S(=O)(Nc1ccc(-c2cnc(C3CC3)o2)cc1)c1c(F)cccc1F | 19 | -2.36
Cn1ccnc1CN(CCO)Cc1ccc(C2CCCC2)s1 | -14 | 1.89
Cc1noc(CNC(=O)c2ccc3c(c2)OCO3)n1 | -10 | 1.47
Cc1cccc(C2(C(=O)N3CC[C@](C)(CN)C3)CCCCC2)c1 | -26 | 3.03
O=C(NC1CCc2c1ccc(Cl)c2Cl)C1COCCO1 (stereo not drawn) | 4 | -0.48
Cc1nc(C(C)C)ncc1C(=O)N1CC[C@H](Nc2ncccn2)[C@@H](O)C1 | -6 | 0.98
CN(CC1CC=CCC1)C(=O)C1CC=CCC1C(=O)N1CCOCC1 (stereo not drawn) | -4 | 0.48
C[C@@H]1CC(=O)N[C@H](C(=O)Nc2cc(C3CC3)ccn2)C1 | -7 | 1.44
Cc1nn(CCO)cc1-c1c(C)c([C@H]2CCOC(C)(C)C2)nc(N)c1C#N | -12 | 1.68
CCCN(CCC)S(=O)(=O)NCCCN(C)c1ccccc1 | -5 | 0.62
Cc1ccc2nc(COc3ccccc3C(=O)[C@H](C#N)c3nc(C)cs3)cn2c1 | -1 | 0.25
CNc1nc(C)cc(C(=O)NCc2nnc3ccccn23)n1 | -5 | 0.89
Cc1cc(C(=O)NCCn2nnc3ccccc3c2=O)[nH]n1 | -20 | 3.37
O=C1NCCOCCN(C(=O)c2ccc3ccccc3n2)[C@H]2CCC[C@@H]12 | -7 | 0.98
Cc1c(Cl)c(C(=O)NC[C@H](c2cccnc2)C(C)C)nn1C | -7 | 0.97
C#CC(C)NC(=O)C1(C(F)(F)F)CCN(C(=O)OC(C)(C)C)C1 (stereo not drawn) | -15 | 2.4
N#Cc1ccc(COc2cccc(-n3cncn3)c2)cc1 | 2 | -0.41
